Laboratory results from the antibiotic and cytotoxicity screens of Wong et al. (2023).
The other results are listed elsewhere or left out.

How the values were obtained:
HSkMC = human skeletal muscle cells; assay: cytotoxicity call (relative viability < 0.9); details: 10 µM
HepG2 = assay: cytotoxicity call (relative viability < 0.9); details: 10 µM
S. aureus RN4220 = assay: growth inhibition call (relative growth <= 0.2); details: 50 µM

Row | SMILES | cytotoxicity call (HSkMC) | cytotoxicity call (HepG2) | growth inhibition call (S. aureus RN4220)
1 | CC(C)NC(=O)Nc1cccc2c1O[C@@H](CN(C)S(=O)(=O)c1ccccc1)[C@@H](C)CN([C@H](C)CO)C2=O | inactive | inactive | inactive
2 | C[C@@H]1CN([C@@H](C)CO)C(=O)Cc2cc(NC(=O)NC3CCCCC3)ccc2O[C@@H]1CN(C)C(=O)Nc1ccc(C(F)(F)F)cc1 | inactive | inactive | inactive
3 | NCc1nncn1-c1ccccc1 | inactive | inactive | inactive
4 | CCS(=O)(=O)N1CCNCC1 | inactive | inactive | inactive
5 | CC(C)NC(=O)Nc1ccc2c(c1)C(=O)N([C@H](C)CO)C[C@@H](C)[C@H](CN(C)Cc1ccc(C(F)(F)F)cc1)OCCCC[C@@H](C)O2 | inactive | active | inactive
6 | C[C@H]1CCCCO[C@@H](CN(C)Cc2ccc3c(c2)OCO3)[C@@H](C)CN([C@@H](C)CO)C(=O)c2cc(NC(=O)c3ccccc3)ccc2O1 | inactive | inactive | inactive
7 | O=C(C[C@H]1C=C[C@@H](NC(=O)Cc2ccccn2)[C@@H](CO)O1)NCCc1ccncc1 | inactive | inactive | inactive
8 | O=C(C[C@@H]1C=C[C@H](NC(=O)CN2CCOCC2)[C@@H](CO)O1)NCCc1ccncc1 | inactive | inactive | inactive
9 | COc1ccc([Si](C)(C)[C@@H]2[C@@H](CCn3cc([C@H](O)c4ccccc4)nn3)O[C@]3(C(=O)N(Cc4cccc(N5C(=O)c6cccc7cccc5c67)c4)c4ccccc43)[C@H]2C)cc1 | inactive | inactive | inactive
10 | COc1ccc(NC(=O)Nc2ccc3c(c2)C(=O)N([C@@H](C)CO)C[C@H](C)[C@@H](CN(C)Cc2ccc(Cl)c(Cl)c2)OCCCC[C@H](C)O3)cc1 | inactive | inactive | inactive
